Data as given in the supplement of paper PMC4604168 (melanoma cell lines).
The list shows a part of the results. Many values rest on one well or one pass, so single values are uncertain.

Assays:
Assay in all cases: cell count relative to DMSO control; melanoma cells; higher = more viable cells
Settings in all cases: library dose: low library concentration; 72 h
[1] = system: MeWo
[2] = system: RPMI7951
[3] = system: RVH-421
[4] = system: SkMel28
[5] = system: SkMel30
[6] = system: UACC62
[7] = system: WM115
[8] = system: WM1716
[9] = system: WM1745
[10] = system: WM3526
[11] = system: WM3619
[12] = system: WM451Lu
[13] = system: SkMel5
[14] = system: UACC257
[15] = system: MZ2-MEL
[16] = system: SkMel2
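Note: cell number obtained by counting DAPI-stained nuclei in high-throughput microscope images with image analysis software, screen run in 1,536-well plates.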

COc1cc([C@@H]2c3cc4c(cc3[C@@H](O[C@@H]3O[C@@H]5CO[C@@H](C)O[C@H]5[C@H](O)[C@H]3O)[C@H]3COC(=O)[C@H]23)OCO4)cc(OC)c1O [etoposide] + CCCS(=O)(=O)Nc1ccc(F)c(C(=O)c2c[nH]c3ncc(Cl)cc23)c1F [PLX4720] (first compound 0.02 µM, partner dose 0.08 µM)
cell count [1]: 95.1% | cell count [2]: 111% | cell count [3]: 77.3% | cell count [4]: 120% | cell count [5]: 106% | cell count [6]: 80.3% | cell count [7]: 98.6% | cell count [8]: 111% | cell count [9]: 94.8% | cell count [10]: 91.8% | cell count [11]: 88.7% | cell count [12]: 110%

CCN(CC)CCNC(=O)c1c(C)[nH]c(/C=C2\C(=O)Nc3ccc(F)cc32)c1C [sunitinib] + O=C(Nc1ccccc1)c1cc([N+](=O)[O-])ccc1Cl [GW9662] (first compound 0.4 µM, partner dose 2 µM)
cell count [1]: 83.3% | cell count [2]: 105% | cell count [3]: 107% | cell count [4]: 85.2% | cell count [5]: 59.7% | cell count [13]: 117% | cell count [14]: 95.3% | cell count [6]: 90.6% | cell count [7]: 100% | cell count [8]: 110% | cell count [9]: 80.9% | cell count [10]: 83.5% | cell count [11]: 105% | cell count [12]: 110%

COc1cc([C@@H]2c3cc4c(cc3[C@@H](O[C@@H]3O[C@@H]5CO[C@@H](C)O[C@H]5[C@H](O)[C@H]3O)[C@H]3COC(=O)[C@H]23)OCO4)cc(OC)c1O [etoposide] + c1cc(-c2cnn3cc(-c4ccc(OCCN5CCCCC5)cc4)cnc23)ccn1 [Dorsomorphin] (first compound 0.02 µM, partner dose 0.4 µM)
cell count [15]: 104% | cell count [1]: 93.6% | cell count [2]: 105% | cell count [3]: 118% | cell count [4]: 105% | cell count [16]: 92.7% | cell count [13]: 79.8% | cell count [14]: 92.3% | cell count [6]: 104% | cell count [7]: 103% | cell count [8]: 83.1% | cell count [9]: 78.1% | cell count [10]: 108% | cell count [11]: 94% | cell count [12]: 84%

COc1cc([C@@H]2c3cc4c(cc3[C@@H](O[C@@H]3O[C@@H]5CO[C@@H](C)O[C@H]5[C@H](O)[C@H]3O)[C@H]3COC(=O)[C@H]23)OCO4)cc(OC)c1O [etoposide] + COC(=O)c1sccc1S(=O)(=O)Nc1ccc(Nc2ccccc2)cc1OC [GSK0660] (first compound 0.02 µM, partner dose 1 µM)
cell count [1]: 90.7% | cell count [2]: 113% | cell count [3]: 83.8% | cell count [4]: 96.5% | cell count [16]: 97.6% | cell count [5]: 128% | cell count [13]: 95% | cell count [14]: 127% | cell count [6]: 80.4% | cell count [7]: 90% | cell count [8]: 80.4% | cell count [9]: 106% | cell count [10]: 95.7% | cell count [11]: 92.9% | cell count [12]: 99.4%

COc1cc([C@@H]2c3cc4c(cc3[C@@H](O[C@@H]3O[C@@H]5CO[C@@H](C)O[C@H]5[C@H](O)[C@H]3O)[C@H]3COC(=O)[C@H]23)OCO4)cc(OC)c1O [etoposide] + C[C@@H](Oc1cc(-c2cnn(C3CCNCC3)c2)cnc1N)c1c(Cl)ccc(F)c1Cl [Crizotinib] (first compound 0.02 µM, partner dose 0.2 µM)
cell count [15]: 94.7% | cell count [1]: 89.9% | cell count [2]: 101% | cell count [3]: 82.1% | cell count [4]: 87.2% | cell count [16]: 95% | cell count [5]: 88.8% | cell count [6]: 84.1% | cell count [7]: 92.4% | cell count [8]: 99.7% | cell count [9]: 98.9% | cell count [10]: 79.6% | cell count [11]: 94% | cell count [12]: 117%

C[C@]1(O)C[C@@H](c2nc(-c3ccc4ccc(-c5ccccc5)nc4c3)c3c(N)nccn32)C1 + CS(=O)(=O)CCNCc1ccc(-c2ccc3ncnc(Nc4ccc(OCc5cccc(F)c5)c(Cl)c4)c3c2)o1 [lapatinib] (first compound 0.4 µM, partner dose 0.8 µM)
cell count [15]: 99.1% | cell count [1]: 91.1% | cell count [2]: 93.5% | cell count [3]: 119% | cell count [4]: 97.5% | cell count [16]: 83.9% | cell count [5]: 74.6% | cell count [6]: 84.8% | cell count [7]: 116% | cell count [8]: 147% | cell count [9]: 81.2% | cell count [10]: 80.2% | cell count [11]: 93% | cell count [12]: 106%

CCN(CC)CCNC(=O)c1c(C)[nH]c(/C=C2\C(=O)Nc3ccc(F)cc32)c1C [sunitinib] + CC1(C)NC(=O)N(c2ccc([N+](=O)[O-])c(C(F)(F)F)c2)C1=O [nilutamide] (first compound 0.4 µM, partner dose 1 µM)
cell count [1]: 91.6% | cell count [2]: 117% | cell count [3]: 124% | cell count [4]: 100% | cell count [5]: 76.3% | cell count [13]: 85.8% | cell count [14]: 114% | cell count [6]: 95.5% | cell count [7]: 108% | cell count [8]: 157% | cell count [9]: 79.5% | cell count [10]: 91.2% | cell count [11]: 122% | cell count [12]: 107%
